# Target: the molecule itself
# Test: cryo-EM structure
protein,measurement,value
full-length rat TRPV1 (transient receptor potential vanilloid member 1) (natural protein) not shown,stoichiometry N,4

# Reference: PMC8335751 (Nature structural & molecular biology, 2021)
